The full ranking holds about 1,000 compounds; the median of “relative growth recovery (pomalidomide 10 uM = 100%, DMSO = 0%)” is about -1.6, and the highest 2% start at about 21. Some of the results follow.
Test system: HEK293FT dCK*-IKZF1
Experiment: relative growth recovery (pomalidomide 10 uM = 100%, DMSO = 0%); higher = more growth rescue (IKZF1 fusion degradation)
Details: compound concentration: 5 uM; AraC concentration: 0.3 uM; overnight pretreatment + 4 days AraC
Procedure: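 Growth recovery screen of the molecular-glue-like (Specs) library. HEK293FT cells expressing a dCK*-IKZF1 fusion (primary) or dCK* alone (counter) were pretreated overnight with compound at 5 uM, then given 0.3 uM AraC for 4 days. Hoechst nuclei were counted by imaging. Primary: normalised to pomalidomide (100%) and DMSO (0%), mean of 2 replicates. Counter: normalised to no-AraC (100%) and AraC+DMSO (0%), single replicate.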

Compound	relative growth recovery [%]
Cc1cnc(Nc2cccc(C3CN(C(=O)c4c(C(C)C)noc4C)CCO3)n2)s1 (configuration not stated)	-3.31
Cc1nc(Nc2cccc(C3CCN(CC(=O)N4CCC(C)CC4)CC3)n2)sc1C	14.2
CCOCC(=O)Nc1ccc(S(=O)(=O)Nc2ncccn2)cc1	1.86
Cc1cnc(Nc2cccc(C3CN(C(=O)c4ccccc4)CCO3)n2)s1 (configuration not stated)	-9.61
CCCOc1ccc(/C=C/C(=O)Nc2ccc(S(=O)(=O)Nc3cc(C)nc(C)n3)cc2)cc1OC	-3.6
CC(=O)Nc1ccc(-c2csc(Nc3ccc(Cl)cn3)n2)cc1	-2.84
O=C(C1CCCCC1)N1CCOC(c2cccc(Nc3ncc(Cc4ccccc4F)s3)n2)C1 (configuration not stated)	2.42
O=C(/C=C/c1cccnc1)N1CCC(c2cc3ccccc3c(Nc3nccs3)n2)CC1	-18.4
CC(=O)Nc1cccc(-c2csc(Nc3cccc(C)n3)n2)c1	5.18
COc1cccc(OC)c1C(=O)N1CCOC(c2cccc(Nc3nc(C)cs3)n2)C1 (configuration not stated)	7.41
Nc1cccc(Oc2ccc3c(c2)C(=O)N(c2cccc4ccccc24)C3=O)c1	-9.89
CCOCc1ccc(C(=O)N2CCCC2c2cccc(Nc3nc(C)c(C)s3)n2)cc1 (configuration not stated)	6.63
Cc1cnc(Nc2cccc(C3CCN(C(=O)C4CCCCC4)CC3)n2)s1	-12.5
CCOc1ccc(C(=O)Nc2ccc(S(=O)(=O)Nc3nc(C)cc(C)n3)cc2)cc1	0.305
O=C(O)COCCOCCNc1cc2c(cc1F)C(=O)N(C1CCC(=O)NC1=O)C2=O (configuration not stated)	-7.7
Cc1cnc(Nc2cc(C3CCN(C(=O)C4CCCCN4C(=O)OC(C)(C)C)CC3)ccn2)s1 (configuration not stated)	0.335
CC(=O)Nc1ccc(S(=O)(=O)Nc2ncccn2)cc1	-3.27
Cc1ccnc(NS(=O)(=O)c2ccc(NC(=O)c3ccc(C)c(C)c3)cc2)n1	1.75
COc1ccc(Cl)cc1NC(=O)CSc1nnc2c(n1)[nH]c1ccc(C)cc12	-3.02
Cc1nc(C)c(C(=O)N2CCC(c3cccc(Nc4ncc(C)s4)n3)CC2)o1	-15.8
Cc1cnc(Nc2cccc(C3CN(C(=O)CCc4cccc(Cl)c4)CCO3)n2)s1 (configuration not stated)	-10.3
O=C(CC(c1ccccc1)c1ccccc1)Nc1ccc(S(=O)(=O)Nc2ncccn2)cc1	-1.98
O=C(COc1ccccc1Cl)Nc1ccc(S(=O)(=O)Nc2ccccn2)cc1	2.83
CN(C)CC(=O)N1CCC(c2cccc(Nc3ncc(-c4ccccc4)s3)n2)CC1	-2.54
Cc1ccccc1N1C(=O)c2ccc(Oc3ccc(N)cc3)cc2C1=O	0.58
Cc1cc(C)c(OCC(=O)Nc2ccc(S(=O)(=O)Nc3cc(C)nc(C)n3)cc2)c(C)c1	-3.12
COc1nccnc1NS(=O)(=O)c1ccc(NC(=S)NC(=O)/C=C/c2ccccc2)cc1	-17.9

— the supplement of paper PMC12340641
